Read-outs that look alike come from different tables or passages of the source. Part of at least one peptide drawing is inferred or uncertain, most often the ends. Marks after values point to notes of the source that are not given here. No end group written: not given here.
Tests used:
A2-supertype alleles = type: binding, human; conditions: for Alleles bound: number of supertype alleles bound, 3 or more considered degenerate
CTL = type: cell-based
[1] = system: A*0201/Kb transgenic mice; type: in vivo; conditions: responders/tested
human PBMC = type: cell-based; conditions: primary cultures, responders/tested
[2] = system: PBMC from patients acutely infected with HBV; conditions: cited from earlier work; for Immunogenicity patients: acute patients, responders/tested
[3] = A2-supermotif cross-reactive peptides
[4] = A2 supermotif peptides, number of A2-supertype alleles bound
[5] = positive when responders noted in primary cultures, acute patients or transgenic mice
[6] = non-crossreactive A2-supermotif peptides
[7] = from a-Bertoni et al, b-Rehermann et al., c-Nayersina et al.
[8] = B7-supermotif cross-reactive peptides

In the case of `CC(C)C[C@H](NC(=O)[C@H](Cc1c[nH]c2ccccc12)NC(=O)[C@H](CO)NC(=O)[C@H](CC(C)C)NC(=O)[C@@H](N)CC(N)=O)C(=O)N[C@@H](CO)C(=O)N[C@@H](CC(C)C)C(=O)N[C@@H](CC(=O)O)C(=O)N[C@H](C(=O)O)C(C)C` [927.42], the “Number of A2-supertype alleles bound” value (A2-supertype alleles; [3]) is reported as 3, the “Number of A2-supertype alleles bound” value (A2-supertype alleles; [4]) is reported as 3 and the Alleles bound (A2-supertype alleles) is reported as 3. The Immunogenicity overall (CTL; [3]) was “+”, the Immunogenicity overall (CTL; [5]) was “+” and the Immunogenicity transgenic ([1]; A2 supermotif peptides) was 2/8. For the same compound, the Immunogenicity transgenic [1, 3] was 2/8.
For `CC[C@H](C)[C@H](NC(=O)[C@@H]1CCCN1C(=O)[C@H](Cc1c[nH]cn1)NC(=O)[C@H](CO)NC(=O)[C@H](Cc1ccc(O)cc1)NC(=O)[C@H](CC(C)C)NC(=O)[C@H](Cc1c[nH]cn1)NC(=O)[C@H](CC(C)C)NC(=O)[C@@H](N)CCCCN)C(=O)O` [927.46], the “Number of A2-supertype alleles bound” value (A2-supertype alleles; [3]) was 3, the “Number of A2-supertype alleles bound” value (A2-supertype alleles; [4]) was 3 and the Alleles bound (A2-supertype alleles) was 3. The Immunogenicity overall (CTL; [3]) was “+”, the Immunogenicity overall (CTL; [5]) was “+” and the Immunogenicity primary (human PBMC; [3]) was 0/4. For the same compound, the Immunogenicity primary (human PBMC) was 0/4, the Immunogenicity transgenic ([1]; A2 supermotif peptides) was 4/6 and the Immunogenicity transgenic [1, 3] was 4/6.
For `CC[C@H](C)[C@H](NC(=O)CNC(=O)[C@H](C)NC(=O)[C@H](CCCCN)NC(=O)[C@H](Cc1c[nH]c2ccccc12)NC(=O)[C@H](CC(C)C)NC(=O)[C@@H](NC(=O)[C@@H](N)Cc1c[nH]cn1)[C@@H](C)O)C(=O)N[C@@H](CC(C)C)C(=O)N[C@@H](Cc1ccc(O)cc1)C(=O)O` [1069.04], the “recognition in acutely infected HBV patients (in words), reported” value ([2]; Bertoni et al., J. Clin. Invest. 100:503, 1997) is listed as “recognized in recall responses from acute HBV patients”.
In the case of `CC(C)C[C@H](NC(=O)[C@@H](NC(=O)[C@@H](N)Cc1ccccc1)C(C)C)C(=O)NCC(=O)NCC(=O)N[C@@H](CS)C(=O)N[C@@H](CCCNC(=N)N)C(=O)N[C@@H](Cc1c[nH]cn1)C(=O)N[C@@H](CCCCN)C(=O)O` [Peptide 1.02.19], the Immunogenicity overall (CTL; [5]) is reported as “unk” and the Immunogenicity primary (human PBMC) is reported as 0/4.
For `CC[C@H](C)[C@H](N)C(=O)N[C@@H](CC(C)C)C(=O)N[C@@H](CCCNC(=N)N)C(=O)NCC(=O)N[C@H](C(=O)N[C@@H](CO)C(=O)N[C@@H](Cc1ccccc1)C(=O)N[C@H](C(=O)N[C@@H](Cc1ccc(O)cc1)C(=O)N[C@H](C(=O)O)C(C)C)C(C)C)[C@@H](C)O` [Peptide 1.0573], the “Number of A2-supertype alleles bound” value (A2-supertype alleles; [4]) was 1, the “Number of A2-supertype alleles bound” value (A2-supertype alleles; [6]) was 1 and the Alleles bound (A2-supertype alleles) was 1. The Immunogenicity overall (CTL; [6]) was “+”, the Immunogenicity overall (CTL; [5]) was “+” and the Immunogenicity patients ([2]; a-Bertoni, b-Rehermann, c-Nayersina et al) was 3/7^b. The Immunogenicity patients [2, 7] was 3/7^b.
In the case of `CC[C@H](C)[C@H](NC(=O)[C@@H](NC(=O)[C@H](CC(C)C)NC(=O)[C@@H](NC(=O)[C@H](CCCNC(=N)N)NC(=O)[C@@H](NC(=O)[C@H](CC(C)C)NC(=O)[C@H](CC(C)C)NC(=O)[C@@H](N)Cc1ccccc1)[C@@H](C)O)[C@@H](C)CC)[C@@H](C)O)C(=O)O` [Peptide 777.03], the “Number of A2-supertype alleles bound” value (A2-supertype alleles; [3]) is reported as 4, the “Number of A2-supertype alleles bound” value (A2-supertype alleles; [4]) is reported as 4 and the Alleles bound (A2-supertype alleles) is reported as 4. The Immunogenicity overall (CTL; [3]) was “+”, the Immunogenicity overall (CTL; [5]) was “+” and the Immunogenicity patients ([2]; a-Bertoni et al) was 14/23^a. For the same compound, the Immunogenicity patients [2, 7] was 14/23^a.
In the case of `CC(C)C[C@H](NC(=O)[C@H](Cc1c[nH]c2ccccc12)NC(=O)[C@H](CO)NC(=O)[C@H](CC(C)C)NC(=O)[C@H](CC(N)=O)NC(=O)[C@H](CO)NC(=O)[C@H](CO)NC(=O)[C@H](CC(C)C)NC(=O)[C@@H](N)CC(C)C)C(=O)O` [Peptide 927.41], the “Number of A2-supertype alleles bound” value (A2-supertype alleles; [3]) is reported as 3, the “Number of A2-supertype alleles bound” value (A2-supertype alleles; [4]) is reported as 3 and the Alleles bound (A2-supertype alleles) is reported as 3. The Immunogenicity overall (CTL; [5]) was “unk”, the Immunogenicity primary (human PBMC; [3]) was 0/4 and the Immunogenicity primary (human PBMC) was 0/4. For the same compound, the Immunogenicity transgenic ([1]; A2 supermotif peptides) was 0/3 and the Immunogenicity transgenic [1, 3] was 0/3.
For `CC[C@H](C)[C@H](NC(=O)[C@@H](NC(=O)[C@@H]1CCCN1C(=O)[C@H](Cc1c[nH]cn1)NC(=O)[C@H](CO)NC(=O)[C@H](Cc1ccc(O)cc1)NC(=O)[C@H](CC(C)C)NC(=O)[C@@H](N)Cc1c[nH]cn1)[C@@H](C)CC)C(=O)N[C@@H](CC(C)C)C(=O)O` [Peptide 927.47], the “Number of A2-supertype alleles bound” value (A2-supertype alleles; [4]) was 2, the “Number of A2-supertype alleles bound” value (A2-supertype alleles; [6]) was 2 and the Alleles bound (A2-supertype alleles) was 2. For the same compound, the Immunogenicity overall (CTL; [6]) was “+”, the Immunogenicity overall (CTL; [5]) was “+” and the Immunogenicity transgenic ([1]; A2 supermotif peptides) was 10/14. The Immunogenicity transgenic [1, 6] was 10/14.
For `CC[C@H](C)[C@H](NC(=O)[C@H](C)NC(=O)[C@H](CO)NC(=O)[C@@H](NC(=O)[C@H](Cc1ccccc1)NC(=O)[C@H](CCC(N)=O)NC(=O)[C@H](C)NC(=O)[C@H](CC(C)C)NC(=O)[C@@H](N)CC(C)C)[C@@H](C)O)C(=O)O` [Peptide 1069.05], the “Number of A2-supertype alleles bound” value (A2-supertype alleles; [3]) was 4, the “Number of A2-supertype alleles bound” value (A2-supertype alleles; [4]) was 4 and the Alleles bound (A2-supertype alleles) was 4. For the same compound, the Immunogenicity overall (CTL; [5]) was “unk”, the Immunogenicity primary (human PBMC; [3]) was 0/4 and the Immunogenicity primary (human PBMC) was 0/4. The Immunogenicity transgenic ([1]; A2 supermotif peptides) was 0/5 and the Immunogenicity transgenic [1, 3] was 0/5.
With `CC[C@H](C)[C@H](NC(=O)[C@@H]1CCCN1C(=O)[C@H](CC(C)C)NC(=O)[C@H](CC(C)C)NC(=O)[C@@H]1CCCN1)C(=O)N[C@@H](Cc1ccccc1)C(=O)N[C@@H](Cc1ccccc1)C(=O)N[C@@H](CS)C(=O)N[C@@H](CC(C)C)C(=O)O` [Peptide 1069.13] the “Number of A2-supertype alleles bound” value (A2-supertype alleles; [4]) was 1, the “Number of A2-supertype alleles bound” value (A2-supertype alleles; [6]) was 1 and the Alleles bound (A2-supertype alleles) was 1. For the same compound, the Immunogenicity overall (CTL; [6]) was “+”, the Immunogenicity overall (CTL; [5]) was “+” and the Immunogenicity primary (human PBMC; [6]) was 0/4. The Immunogenicity primary (human PBMC) was 0/4, the Immunogenicity transgenic ([1]; A2 supermotif peptides) was 7/12 and the Immunogenicity transgenic [1, 6] was 7/12.
In the case of `CC[C@H](C)[C@H](NC(=O)[C@H](Cc1c[nH]c2ccccc12)NC(=O)[C@@H](NC(=O)CNC(=O)[C@H](Cc1ccccc1)NC(=O)[C@H](CO)NC(=O)[C@@H](NC(=O)[C@H](CC(C)C)NC(=O)[C@@H](N)Cc1ccc(O)cc1)C(C)C)C(C)C)C(=O)O` [Peptide 1090.12], the “Number of A2-supertype alleles bound” value (A2-supertype alleles; [4]) is reported as 1, the “Number of A2-supertype alleles bound” value (A2-supertype alleles; [6]) is reported as 1 and the Alleles bound (A2-supertype alleles) is reported as 1. The Immunogenicity overall (CTL; [6]) was “+”, the Immunogenicity overall (CTL; [5]) was “+” and the Immunogenicity primary (human PBMC; [6]) was 9/9. The Immunogenicity primary (human PBMC) was 9/9.
In the case of `CC(C)C[C@H](N)C(=O)N[C@H](C(=O)N1CCC[C@H]1C(=O)N[C@@H](Cc1ccccc1)C(=O)N[C@H](C(=O)N[C@@H](CCC(N)=O)C(=O)N[C@@H](Cc1c[nH]c2ccccc12)C(=O)N[C@@H](Cc1ccccc1)C(=O)N[C@H](C(=O)O)C(C)C)C(C)C)C(C)C` [Peptide 1132.01], the “Number of A2-supertype alleles bound” value (A2-supertype alleles; [3]) is reported as 4, the “Number of A2-supertype alleles bound” value (A2-supertype alleles; [4]) is reported as 4 and the Alleles bound (A2-supertype alleles) is reported as 4. The Immunogenicity overall (CTL; [5]) was “unk”, the Immunogenicity primary (human PBMC; [3]) was 0/3 and the Immunogenicity primary (human PBMC) was 0/3. For the same compound, the Immunogenicity transgenic ([1]; A2 supermotif peptides) was 0/4 and the Immunogenicity transgenic [1, 3] was 0/4.
In the case of `CSCC[C@H](NC(=O)CNC(=O)[C@H](CCC(N)=O)NC(=O)[C@H](Cc1ccc(O)cc1)NC(=O)[C@H](CC(=O)O)NC(=O)[C@H](CC(C)C)NC(=O)[C@@H](N)CC(C)C)C(=O)N[C@@H](CC(C)C)C(=O)N1CCC[C@H]1C(=O)N[C@H](C(=O)O)C(C)C` [Peptide 1137.02], the “Number of A2-supertype alleles bound” value (A2-supertype alleles; [4]) is reported as 2, the “Number of A2-supertype alleles bound” value (A2-supertype alleles; [6]) is reported as 2 and the Alleles bound (A2-supertype alleles) is reported as 2. For the same compound, the Immunogenicity overall (CTL; [6]) was “+”, the Immunogenicity overall (CTL; [5]) was “+” and the Immunogenicity primary (human PBMC; [6]) was 1/2. For the same compound, the Immunogenicity primary (human PBMC) was 1/2, the Immunogenicity transgenic ([1]; A2 supermotif peptides) was 0/4 and the Immunogenicity transgenic [1, 6] was 0/4.
In the case of `CC(C)C[C@H](NC(=O)CN)C(=O)N[C@@H](CC(C)C)C(=O)NCC(=O)N[C@@H](Cc1c[nH]c2ccccc12)C(=O)N[C@@H](CO)C(=O)N1CCC[C@H]1C(=O)N[C@@H](CCC(N)=O)C(=O)N[C@@H](C)C(=O)O` [Peptide 1142.07], the “Number of A2-supertype alleles bound” value (A2-supertype alleles; [4]) is reported as 2, the “Number of A2-supertype alleles bound” value (A2-supertype alleles; [6]) is reported as 2 and the Alleles bound (A2-supertype alleles) is reported as 2. For the same compound, the Immunogenicity overall (CTL; [6]) was “+”, the Immunogenicity overall (CTL; [5]) was “+” and the Immunogenicity primary (human PBMC; [6]) was 3/4. The Immunogenicity primary (human PBMC) was 3/4, the Immunogenicity transgenic ([1]; A2 supermotif peptides) was 5/6 and the Immunogenicity transgenic [1, 6] was 5/6.
For `CC(C)C[C@H](N)C(=O)N1CCC[C@H]1C(=O)N[C@H](C(=O)N[C@@H](CS)C(=O)N[C@@H](C)C(=O)N[C@@H](Cc1ccccc1)C(=O)N[C@@H](CO)C(=O)N[C@@H](CO)C(=O)N[C@@H](C)C(=O)O)C(C)C` [Peptide 1147.06], the Immunogenicity overall (CTL; [8]) was “+”, the Immunogenicity overall (CTL; [5]) was “+” and the Immunogenicity primary (human PBMC; [8]) was 1/4. For the same compound, the Immunogenicity primary (human PBMC) was 1/4.
In the case of `CC[C@H](C)[C@H](NC(=O)[C@H](C)NC(=O)[C@H](CO)NC(=O)[C@@H](NC(=O)[C@H](Cc1ccccc1)NC(=O)[C@H](CCC(N)=O)NC(=O)[C@H](C)NC(=O)[C@H](CC(C)C)NC(=O)[C@H](CC(C)C)NC(=O)[C@@H](N)Cc1ccccc1)[C@@H](C)O)C(=O)O` [Peptide 1147.13], the “Number of A2-supertype alleles bound” value (A2-supertype alleles; [3]) is reported as 5, the “Number of A2-supertype alleles bound” value (A2-supertype alleles; [4]) is reported as 5 and the Alleles bound (A2-supertype alleles) is reported as 5. For the same compound, the Immunogenicity overall (CTL; [5]) was “unk”, the Immunogenicity transgenic ([1]; A2 supermotif peptides) was 0/3 and the Immunogenicity transgenic [1, 3] was 0/3.
For GSTHVSWPK [1150.51], the Immunogenicity overall (CTL; A3-supermotif cross-reactive peptides) was “+” and the Immunogenicity overall (CTL; [5]) was “+”.
With YLHTLWKAGV [Peptide 1069.12] the “Number of A2-supertype alleles bound” value (A2-supertype alleles; [4]) was 2, the “Number of A2-supertype alleles bound” value (A2-supertype alleles; [6]) was 2 and the Immunogenicity overall (CTL; [6]) was “+”. For the same compound, the Immunogenicity overall (CTL; [5]) was “+”, the Immunogenicity primary (human PBMC; [6]) was 2/4 and the Immunogenicity primary (human PBMC) was 2/4.

Reference: US20070059799A1 (priority 1999, published 2007)
